The values that follow come from PMC5892938.

Some of the results follow. At the low end of the ranking the order means little.

This assay has as its target GST-SBP-SLBP (stem-loop binding protein) (UniProt Q14493). Briefly: targeted RNA Bind-n-Seq.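 Further: DESeq read counts versus GST-SBP nonspecific binding control pulldown.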 The following applies: RBNS binding buffer: 25 mM Tris pH 7.5, 150 mM KCl, 3 mM MgCl2, 0.1% Tween, 0.5 mg/mL BSA, 1 mM DTT; 27 nM protein, 750 pM RNA pool; temperature not stated; high values mean tight binding.
With “GGUCACGUCUCAAUCAACUCAUUAGAGGGGGGGAAAACCCCUUUGCCCUCAACCUCAACAGCUCGCAGUCAAG”, the binding signal (log2 fold change) was -0.335. Under “GGUCACGUCUCAAUCAACUCAACUCCAGGAGUUUACUCCUGUAUACUCAACAGCUCGCAGUCAAG” stands 0.132. On to “GGUCACGUCUCAAUCAACUCAUUCUCAGGAGUUUUCUCCUGUAAACUCAACAGCUCGCAGUCAAG”, for which the binding signal (log2 fold change) was 0.224. Under “GGUCACGUCUCAAUCAACUCUUUCUCCAGGGAAACCCCUGGCAUUUUCAACAGCUCGCAGUCAAG” stands 0.0231. As to “GGUCACGUCUCAAUCAACUCUAUUCCAGGAGUUUUCUCCUGCAUUUUCAACAGCUCGCAGUCAAG”, the binding signal (log2 fold change) stood at 0.0267. For “GGUCACGUCUCAAUCAACUCAUCUCCCAGGGAAAACCCUGGUUUACUCAACAGCUCGCAGUCAAG” the value was -0.277; for “GGUCACGUCUCAAUCAACUCCUACGAGGGGGGGAAAACCCCUUUACCCUCACCAUCAACAGCUCGCAGUCAAG”, -0.134. Under “GGUCACGUCUCAAUCAACUCAUCGUCCAGGGAAAACCCUGGCUUUUUCAACAGCUCGCAGUCAAG” stands -0.115. Under “GGUCACGUCUCAAUCAACUCAUCCCCAGGAGUUUCCUCCUGUUUACUCAACAGCUCGCAGUCAAG” stands -0.0513; under “GGUCACGUCUCAAUCAACUCUUAAGAGGGGGGGAAAACCCCUUUACCCUCAAUAUCAACAGCUCGCAGUCAAG”, -0.547. On to “GGUCACGUCUCAAUCAACUCUUUCUCCAGGGAAAACCCUGGCAAACUCAACAGCUCGCAGUCAAG”, for which the binding signal (log2 fold change) is -0.0271.

For the sequence “GGUCACGUCUCAAUCAACUCCCUCGAGGGGGGGAAAACCCCUUUACCCUCAACUUCAACAGCUCGCAGUCAAG”, the binding signal (log2 fold change) is 0.191. Consider “GGUCACGUCUCAAUCAACUCUUACGAGGGGGGGAAAACCCCUUUGCCCUCACAAUCAACAGCUCGCAGUCAAG”, for which the binding signal (log2 fold change) is -0.00764.

In the case of “GGUCACGUCUCAAUCAACUCAGUUUCAGGAGUUUUCUCCUGUAUUUUCAACAGCUCGCAGUCAAG”, the binding signal (log2 fold change) is 0.144.

As to “GGUCACGUCUCAAUCAACUCUAACGAGGGGGGGAAAACCCCUUUACCCUCCAAUUCAACAGCUCGCAGUCAAG”, the binding signal (log2 fold change) was -0.167. Under “GGUCACGUCUCAAUCAACUCCUAAGAGGGGGGGAAAACCCCUUUACCCUCCAUGUCAACAGCUCGCAGUCAAG” stands -0.269.

Regarding “GGUCACGUCUCAAUCAACUCCUUAGAGGGGGGGAAAACCCCUUUGCCCUCGAAUUCAACAGCUCGCAGUCAAG”, the binding signal (log2 fold change) is 0.379.

Consider “GGUCACGUCUCAAUCAACUCCUUAGAGGGGGGGAAAACCCCUUUGCCCUCCAACUCAACAGCUCGCAGUCAAG”, for which the binding signal (log2 fold change) was -0.171. In the case of “GGUCACGUCUCAAUCAACUCGUCUUCAGGAGUUUCCUCCUGUUUUUUCAACAGCUCGCAGUCAAG”, the binding signal (log2 fold change) was -0.0508.

As for “GGUCACGUCUCAAUCAACUCUUUCUCAGGAGUUUUCUCCUGCAAACUCAACAGCUCGCAGUCAAG”, the binding signal (log2 fold change) came out at 0.141. “GGUCACGUCUCAAUCAACUCAUCCCCAGGAGUUUUCUCCUGCUUAGUCAACAGCUCGCAGUCAAG”: the binding signal (log2 fold change) is -0.00922. For “GGUCACGUCUCAAUCAACUCAUCGCCCAGGGAAACCCCUGGUUAUCUCAACAGCUCGCAGUCAAG” the value was -0.237; for “GGUCACGUCUCAAUCAACUCAUUCCCCAGGGAAAACCCUGGUUUUCUCAACAGCUCGCAGUCAAG”, -0.0596; for “GGUCACGUCUCAAUCAACUCCUCGGAGGGGGGGAAAACCCCUUUACCCUCAUUCUCAACAGCUCGCAGUCAAG”, 0.168.

For the sequence “GGUCACGUCUCAAUCAACUCUCUAGAGGGGGGGAAAACCCCUUUGCCCUCAUUCUCAACAGCUCGCAGUCAAG”, the binding signal (log2 fold change) is -0.173. Regarding “GGUCACGUCUCAAUCAACUCAUAGGAGGGGGGGAAAACCCCUUUACCCUCAUCAUCAACAGCUCGCAGUCAAG”, the binding signal (log2 fold change) was 0.315. For “GGUCACGUCUCAAUCAACUCUCUCGAGGGGGGGAAAACCCCUUUGCCCUCAACAUCAACAGCUCGCAGUCAAG” the value was 0.307. With “GGUCACGUCUCAAUCAACUCAUUUCCCAGGGAAAUCCCUGGCAUACUCAACAGCUCGCAGUCAAG”, the binding signal (log2 fold change) was -0.0927.

Regarding “GGUCACGUCUCAAUCAACUCACACGAGGGGGGGAAAACCCCUUUACCCUCCAUAUCAACAGCUCGCAGUCAAG”, the binding signal (log2 fold change) was found to be 0.0641. Under “GGUCACGUCUCAAUCAACUCAAACGAGGGGGGGAAAACCCCUUUACCCUCACUCUCAACAGCUCGCAGUCAAG” stands -0.167. Under “GGUCACGUCUCAAUCAACUCUUUCUCAGGAGUUUCCUCCUGCAAAUUCAACAGCUCGCAGUCAAG” stands -0.00476; under “GGUCACGUCUCAAUCAACUCUUCUUCCAGGGAAACCCCUGGCUAAUUCAACAGCUCGCAGUCAAG”, -0.0759; under “GGUCACGUCUCAAUCAACUCUUUUUCCAGGGAAACCCCUGGCAUUCUCAACAGCUCGCAGUCAAG”, 0.0708. Regarding “GGUCACGUCUCAAUCAACUCAUCUUCAGGAGUUUCCUCCUGCUAACUCAACAGCUCGCAGUCAAG”, the binding signal (log2 fold change) was found to be 0.0808. For “GGUCACGUCUCAAUCAACUCUAAAGAGGGGGGGAAAACCCCUUUGCCCUCAAUAUCAACAGCUCGCAGUCAAG” the value was 0.133; for “GGUCACGUCUCAAUCAACUCAGUCUCAGGAGUUUUCUCCUGCUAAUUCAACAGCUCGCAGUCAAG”, -0.103; for “GGUCACGUCUCAAUCAACUCUAUUUCAGGAGUUUUCUCCUGUUAAUUCAACAGCUCGCAGUCAAG”, 0.267. As for “GGUCACGUCUCAAUCAACUCAAUCUCAGGAGUUUGCUCCUGUAUUUUCAACAGCUCGCAGUCAAG”, the binding signal (log2 fold change) stood at 0.0641.

As to “GGUCACGUCUCAAUCAACUCAACUUCCAGGGAAAUCCCUGGCAUAUUCAACAGCUCGCAGUCAAG”, the binding signal (log2 fold change) is -0.0196. As for “GGUCACGUCUCAAUCAACUCCUUAGAGGGGGGGAAAACCCCUUUGCCCUCACCAUCAACAGCUCGCAGUCAAG”, the binding signal (log2 fold change) was -0.296. For “GGUCACGUCUCAAUCAACUCUACGCCAGGAGUUUCCUCCUGUAAUCUCAACAGCUCGCAGUCAAG” the value was 0.132. Under “GGUCACGUCUCAAUCAACUCAAUCUCAGGAGUUUCCUCCUGCAAACUCAACAGCUCGCAGUCAAG” stands 0.122; under “GGUCACGUCUCAAUCAACUCAUUCGCAGGAGUUUCCUCCUGGUUAUUCAACAGCUCGCAGUCAAG”, 0.0672.

Consider “GGUCACGUCUCAAUCAACUCAUUUUCAGGAGUUUUCUCCUGUGUAUUCAACAGCUCGCAGUCAAG”, for which the binding signal (log2 fold change) was found to be 0.0477. For “GGUCACGUCUCAAUCAACUCUUACGAGGGGGGGAAAACCCCUUUGCCCUCAAAUUCAACAGCUCGCAGUCAAG” the value was 0.347. For “GGUCACGUCUCAAUCAACUCUACUCCAGGAGUUUUCUCCUGCAAAUUCAACAGCUCGCAGUCAAG” the value was 0.0688. With “GGUCACGUCUCAAUCAACUCAUCUUCAGGAGUUUGCUCCUGUAUAUUCAACAGCUCGCAGUCAAG”, the binding signal (log2 fold change) was -0.0541. With “GGUCACGUCUCAAUCAACUCAUUUCCAGGAGUUUUCUCCUGUAAUUUCAACAGCUCGCAGUCAAG”, the binding signal (log2 fold change) was found to be 0.0498. For the sequence “GGUCACGUCUCAAUCAACUCUAUUCCAGGAGUUUUCUCCUGCUAACUCAACAGCUCGCAGUCAAG”, the binding signal (log2 fold change) was 0.0174. As to “GGUCACGUCUCAAUCAACUCAACUCCAGGAGUUUCCUCCUGCAAUCUCAACAGCUCGCAGUCAAG”, the binding signal (log2 fold change) was 0.0162.

Take “GGUCACGUCUCAAUCAACUCUAGGUCAGGAGUUUUCUCCUGUAAAUUCAACAGCUCGCAGUCAAG”: the binding signal (log2 fold change) worked out at 0.00903.

Turning to “GGUCACGUCUCAAUCAACUCUUUCUCAGGAGUUUUCUCCUGUAAACUCAACAGCUCGCAGUCAAG”, the binding signal (log2 fold change) is -0.00247.

In the case of “GGUCACGUCUCAAUCAACUCUUUCUCAGGAGUUUACUCCUGUAUUUUCAACAGCUCGCAGUCAAG”, the binding signal (log2 fold change) was -0.172. Take “GGUCACGUCUCAAUCAACUCUACUCCCAGGGAAAUCCCUGGCUUAUUCAACAGCUCGCAGUCAAG”: the binding signal (log2 fold change) was -0.00341. Under “GGUCACGUCUCAAUCAACUCAUUCCCAGGAGUUUGCUCCUGUAUUCUCAACAGCUCGCAGUCAAG” stands 0.139; under “GGUCACGUCUCAAUCAACUCAUUCUCCAGGGAAAGCCCUGGUAAUUUCAACAGCUCGCAGUCAAG”, -0.135. “GGUCACGUCUCAAUCAACUCUUUCUCCAGGGAAAGCCCUGGCUUUCUCAACAGCUCGCAGUCAAG”: the binding signal (log2 fold change) was found to be 0.122.

Regarding “GGUCACGUCUCAAUCAACUCAACUUCCAGGGAAAUCCCUGGCUUUUUCAACAGCUCGCAGUCAAG”, the binding signal (log2 fold change) is -0.148. Under “GGUCACGUCUCAAUCAACUCUCCCGAGGGGGGGAAAACCCCUUUACCCUCUUUAUCAACAGCUCGCAGUCAAG” stands -0.146. Under “GGUCACGUCUCAAUCAACUCAUCCGAGGGGGGGAAAACCCCUUUACCCUCAACAUCAACAGCUCGCAGUCAAG” stands -0.446; under “GGUCACGUCUCAAUCAACUCAUCUUCCAGGGAAAGCCCUGGUUAUUUCAACAGCUCGCAGUCAAG”, -0.11.

For the sequence “GGUCACGUCUCAAUCAACUCCCUCGAGGGGGGGAAAACCCCUUUACCCUCAACCUCAACAGCUCGCAGUCAAG”, the binding signal (log2 fold change) is -0.269.

Take “GGUCACGUCUCAAUCAACUCUACUUCCAGGGAAAACCCUGGCUUACUCAACAGCUCGCAGUCAAG”: the binding signal (log2 fold change) was found to be 0.229. As to “GGUCACGUCUCAAUCAACUCUACUCCAGGAGUUUACUCCUGCUAAUUCAACAGCUCGCAGUCAAG”, the binding signal (log2 fold change) was 0.145.

“GGUCACGUCUCAAUCAACUCGCAAGAGGGGGGGAAAACCCCUUUACCCUCACAAUCAACAGCUCGCAGUCAAG”: the binding signal (log2 fold change) came to 0.536. “GGUCACGUCUCAAUCAACUCUUCUUCCAGGGAAACCCCUGGUUUUCUCAACAGCUCGCAGUCAAG”: the binding signal (log2 fold change) was found to be 0.0175. For “GGUCACGUCUCAAUCAACUCUAUCUCAGGAGUUUACUCCUGUAUUCUCAACAGCUCGCAGUCAAG” the value was 0.228; for “GGUCACGUCUCAAUCAACUCAGUCCCAGGAGUUUCCUCCUGUUUUCUCAACAGCUCGCAGUCAAG”, 0.0303. For “GGUCACGUCUCAAUCAACUCAAUCUCAGGAGUUUCCUCCUGUAUACUCAACAGCUCGCAGUCAAG”, the binding signal (log2 fold change) stood at 0.0768. For “GGUCACGUCUCAAUCAACUCUUUUUCAGGAGUUUCCUCCUGCUAUUUCAACAGCUCGCAGUCAAG” the value was 0.00196. Under “GGUCACGUCUCAAUCAACUCCAUAGAGGGGGGGAAAACCCCUUUACCCUCCGUUUCAACAGCUCGCAGUCAAG” stands 0.173; under “GGUCACGUCUCAAUCAACUCUUUUUCCAGGGAAACCCCUGGCUUAUUCAACAGCUCGCAGUCAAG”, 0.0123; under “GGUCACGUCUCAAUCAACUCUAUUUCCAGGGAAACCCCUGGUUUACUCAACAGCUCGCAGUCAAG”, -0.0408.
